# Measured values from PubChem BioAssay AID624418 (National Center for Advancing Translational Sciences (NCATS), 2012).
# The whole screen tested about 410,000 compounds, of which about 530 (0.13%) were called active. This list was built around the results that the source calls inconclusive (neither active nor inactive); the mix of calls is not that of the screen. The call rests on the fitted dose curve; in most records, active means well fitted inhibition curve with a large enough effect; inconclusive means small, poorly fitted or top-dose-only effect, or another doubt; inactive means no such curve, though single readings can be large or run the other way. Potencies beside an inconclusive call are fits to weak or partial responses and may not hold up. *1 amine or outer side, *2 acyl side, *3 side chain or, on linkers, in order; H or OH if unused. Where a SMILES comes first, the peptide text is derived from it. [ ]: non-standard residue; d: D form. X3 = CC[C@H](C)C(OC(=O)[C@@H](C)[C@@H](CC)N[*:1])C(=O)[*:2]; X1 = CC(N[*:1])C(=O)C(C)(C)C(=O)[*:2]; NMeY = CN[C@@H](Cc1ccc(O)cc1)C(=O)O; NMeL = CN[C@@H](CC(C)C)C(=O)O; NMeV = CN[C@H](C(=O)O)C(C)C; NMeA = CN[C@@H](C)C(=O)O
# Assay: qHTS of GLP-1 Receptor Inverse Agonists: Cytotox Screen
# Settings: HEK293 cAMP-luciferase reporter cells, luminescence, 24 h; series mostly up to 38.3 µM
# Source text: The overall goal of this project was to develop a novel assay for discovering small molecule ligands for class B1 G protein-coupled receptors (GPCRs). Very few agonists (or inverse agonists) with generally weak activity for this entire group of physiologically important receptors are known to date. To establish proof-of-principle that this critical bottleneck can be overcome with a suitable screening approach, our studies focused on the class B1 receptor for glucagon-like peptide-1 (GLP-1R), a potential therapeutic target for diabetes and neurodegenerative disease.
# The assay was developed using a cell-based functional readout. Toward this goal, stably transfected HEK293 cell clones were established that co-express (i) a cAMP-responsive luciferase reporter gene, and (ii) constitutively active GLP-1R that upon ligand interaction inhibit (inverse agonists) the luciferase activity. In addition, two control cell lines were developed: (i) one that express only the cAMP-responsive reporter gene to enable initial exclusion of GLP-1R independent effects of candidate probes; and (ii) one with the reported gene cloned with another constitutively active orphan receptor GPR119 to enable exclusion of GLP-1R independent inhibitor effects of candidate inverse agonists.
# To that end, this assay was optimized for 1536-well format and screened against the MLSMR. Then the same collection was run in this cytotoxicity assay where inhibition was the undesired outcome.
# NIH Molecular Libraries Probe Production Network [MLPCN]
# NIH Chemical Genomics Center [NCGC]
# PI Name: Martin Beinborn, Tufts Medical Center
# Six ul of cell suspension (200 cells/uL in DMEM + 10% Nu serum + 1% pen-strep) is dispensed in a white solid 1536-well plate. The plates are incubated for 12 hours at 37 deg C at 5% CO2 followed by addition of 23 nL compounds. After 24 hr incubation at 37 deg C and 5% CO2, 3 uL of luciferase assay detection reagent is added. A luminescence read is obtained on the PerkinElmer Viewlux after 12 min incubation at room temperature.
# Potency means the concentration at half of the fitted maximal effect.
row,SMILES,Potency
1,COc1ccc(C(=O)C(CN2CCCC2)c2ccccc2)cc1 (configuration not stated),"inconclusive: 12.6 µM [inhibitor, partial curve, poor fit]"
2,O=NN(CC(=O)NNc1ccccc1)CC(=O)NNc1ccccc1,"inconclusive: 11.2 µM [inhibitor, partial curve, poor fit]"
3,Cc1cc(C)c2nc(N(CCN(C)C)C(=O)c3ccc(S(=O)(=O)N(C)CC4CCCO4)cc3)sc2c1 (configuration not stated),inactive
4,COc1ccc(-c2nnn(CC(=O)N(CC(=O)NC3CCCC3)c3ccccc3)n2)cc1OC,"inconclusive: 28.2 µM [inhibitor, single point]"
5,CCCc1c2ccccc2nc2ccccc12,inactive
6,CC(=O)N1N=C(c2ccc(Cl)cc2)OC1c1ccc(C(C)C)cc1 (configuration not stated),inactive
7,Cc1nc2ccccc2n1/N=C/c1ccc([N+](=O)[O-])o1,"inconclusive: 31.6 µM [inhibitor, partial curve, poor fit]"
8,COc1ccc(/C=N\NC(=O)C2COc3ccccc3O2)cc1O (configuration not stated),inactive
9,COc1ccc(Cc2nc3ccc(C(=O)N4CCCC4)cc3o2)cc1,inactive
10,COC(=O)c1cc(NC(=S)NCc2ccc(Cl)cc2)cc(C(=O)OC)c1,"inconclusive: 12.6 µM [inhibitor, single point]"
11,O=C(CSc1nc2ccccc2c(=O)n1CC1CCCO1)Nc1ccccc1Cl (configuration not stated),"inconclusive: 28.2 µM [inhibitor, single point]"
12,C=C1C(=O)OC2C1CCC(C)C1C=CC(=O)C12C (configuration not stated),"inconclusive: 10 µM [inhibitor, partial curve, poor fit]"
13,CCc1ccc(N=Nc2ccc(O)c3[nH]cnc23)cc1,"inconclusive: 10 µM [inhibitor, partial curve, poor fit]"
14,CCCCOc1ccc(/C=C/C(=O)OCC(=O)N2CC(=O)Nc3ccccc32)cc1OCC,"inconclusive: 28.2 µM [inhibitor, single point]"
15,COC(=O)C1CCN(C2=C(NS(=O)(=O)c3ccc(Cl)cc3)C(=O)c3ccccc3C2=O)CC1,"inconclusive: 8.91 µM [inhibitor, partial curve, poor fit]"
16,CC[C@H](C)C1OC(=O)[C@@H](C)[C@@H](CC)NC(=O)[C@H](C)N(C)C(=O)C(C)(C)C(=O)C(C)NC(=O)[C@H](Cc2ccc(OC)cc2)N(C)C(=O)[C@H](C(C)C)N(C)C(=O)CNC(=O)[C@H](CC(C)C)N(C)C(=O)CNC1=O (some centres not stated) (cyclo(G[NMeL]G[NMeV][NMeY](Me)[X1][NMeA][X3])),"inconclusive: 0.708 µM [inhibitor, full curve, poor fit]"
17,Oc1cccc(/C=N/Nc2cc(N3CCCC3)nc(N3CCCC3)n2)c1,"inconclusive: 5.62 µM [inhibitor, partial curve]"
18,Cc1nnc(C)c2c(C)n(-c3ccccc3N)c(C)c12,"inconclusive: 25.1 µM [inhibitor, partial curve, poor fit]"
19,COc1cnc(-c2ccccn2)nc1Sc1ccc(F)cc1,"inconclusive: 2.82 µM [inhibitor, full curve]"
20,COc1cc(/C=N\Nc2nc3ccccc3o2)cc(OC)c1OC,"inconclusive: 0.501 µM [inhibitor, full curve, poor fit]"
21,c1csc(CNc2ccn3nc(-c4ccc(OCCN5CCOCC5)cc4)cc3n2)c1,"inconclusive: 25.1 µM [inhibitor, single point]"

row,SMILES,Potency
1,COc1cccc(C(=O)NC2=NC(c3ccccc3F)CC(=O)N2)c1 (configuration not stated),inactive
2,COc1ccc(-c2nc3scc(CCNS(=O)(=O)c4cccs4)n3n2)cc1,inactive
3,CC1CCN(Cc2c(C(=O)N/N=C/c3cc(Br)ccc3O)nnn2-c2nonc2N)CC1,inactive
4,COc1ccc(CNC(=S)Nc2cccc(Cl)c2)cc1,"inconclusive: 28.2 µM [inhibitor, single point]"
5,COc1ccc(CN([C@H](CO)CC(C)C)S(=O)(=O)N(Cc2ccccc2)[C@H](CO)CC(C)C)cc1,"inconclusive: 28.2 µM [inhibitor, single point]"
6,CCOC(=O)Cc1ccc(NC(=O)Nc2nnc(N3CCCCC3C)s2)cc1 (configuration not stated),inactive
7,N#CC(=C(O)COC(=O)CCCNC(=O)c1ccc(Cl)cc1)c1nc2ccccc2[nH]1,"inconclusive: 28.2 µM [inhibitor, single point]"
8,O=C(NCc1nc2ccccc2[nH]1)C1=C[C@H](c2ccc(Br)cc2)C[C@H](OCc2ccc(CO)cc2)O1,"inconclusive: 31.6 µM [inhibitor, single point]"
9,CC(C)=N/N=C1/NC(=O)C(c2ccccc2)S1 (configuration not stated),"inconclusive: 11.2 µM [inhibitor, partial curve, poor fit]"
10,O=C(c1ccco1)N1CCCN(Cc2nc(Cc3ccccc3)no2)CC1,inactive
11,Cc1ccc(OCCCN(C)C)c(Br)c1,inactive
12,CCc1ccc(Nc2nc(-c3cc4cccc(OC)c4oc3=O)c(CC)s2)cc1,inactive
13,CC(C)(C)CC(=O)Nc1ccc(Nc2ccccc2)cc1,inactive
14,Cc1ccc(NS(=O)(=O)c2sc3ccc(Cl)cc3c2C)cc1,"inconclusive: 12.6 µM [inhibitor, single point]"
15,O=S(=O)(N/N=C/c1cn(Cc2ccccc2)c2ccccc12)c1ccccc1,"inconclusive: 10 µM [inhibitor, single point]"
16,CC(=O)NC(c1ccco1)c1ccc2cccnc2c1O (configuration not stated),"inconclusive: 2.82 µM [inhibitor, full curve, poor fit]"
17,COc1ccc(-n2c(SCC(=O)Nc3ccc(Br)cc3)nc(O)cc2=O)cc1,inactive
18,COc1ccc2c(c1)c1c(c(=O)n(-c3cc(Cl)ccc3C)c(=O)n1Cc1ccc(F)cc1)n2C,inactive
19,Cc1ccc(C(C)C)c(OCC(=O)Nc2cccc(S(=O)(=O)NC3=NCCCCC3)c2)c1,inactive
20,O=Cc1cc2ccccc2nc1SCc1ccc(Cl)cc1,"inconclusive: 2.51 µM [inhibitor, full curve, poor fit]"
21,C=CCN(CC=C)S(=O)(=O)c1ccc(NC(=S)NC(=O)C2CC2)cc1,"inconclusive: 28.2 µM [inhibitor, single point]"
